Measurements reported in article PMC12136788.
Some of the results follow.

B1: chr6:133136146:133136147:+_ENSG00000112306_ENST00000230050|hu_hu|FALSE|FALSE (ssRNA)
RNA: GGGAGUUCUACAGUCCGACGAUCACAAAGAUGGGCUUGGCGCUUGUCUAAGGCUUUGGCAGCUUCGCGAAUUCCACGUGCUAGGCCAUCGUGGAUGAGGGCAGUCUUCAGAACCUCUUGUAAAGCAGUAUUAACGUCCAUUACCAACAGAGGAUUGAGCAUCA
B2: chr7:54825262:54825263:-_ENSG00000132432_ENST00000352861|hu_hu|hu_hu_hu_mus_False|18_108 (ssRNA)
RNA: GGGAGUUCUACAGUCCGACGAUCCUGACUUGGCUCAUCCACAAACUGCAUUACCUGAUCCAUGUUUGUUGGAUGGCGGAUUGAGAGCGUAGAGACACGUAGCUCAGGAGAGAACCGGAUGGAGGCCAACCGGAAGCUGGCAACCAACAGAGGAUUGAGCAUCA
B3: chrX:77160730:77160731:+_ENSG00000131174_ENST00000481445|hu_mus|motif|central (ssRNA)
RNA: GGGAGUUCUACAGUCCGACGAUCCUACUGAUCUCUCCAUUCCUUUGGGGUGACUCUGCCAACAGGGGACAUGUUCCAUUCGGUUCCAAUUUGUGUGGCUGUAUAUGUCCAUGUAGAAACACAGAAGAUGGCUCCACCUGCUAACAACAGAGGAUUGAGCAUCA
B4: chr9:71842732:71842733:+_ENSG00000119139_ENST00000377245|hu_hu|motif|central (ssRNA)
RNA: GGGAGUUCUACAGUCCGACGAUCAUCAUAAUCAGAAUACUGAUGACGUCUCUCCUCUGGAGAAAAUGAUCGGUUUGACUCGGUUUCUGAAAUAUCUUCUAUUUCUGAGUCACUGUCAUUUAAUGACGGGAUGUUGAUGAGGGUCAACAGAGGAUUGAGCAUCA
B5: chr1:130485734:130485735:-_ENSMUSG00000045382_ENSMUST00000052172|mus_mus|mus_mus_mus_hu_False|78_78 (ssRNA)
RNA: GGGAGUUCUACAGUCCGACGAUCGAUGAAGGAGUCGAUGCUGAUCCCAAUGUAGUAUGGCAGCCAGCAGGCGAAGAAAGCCAGGAUGAGGAUGACUGUGGUCUUGAGGGCCUUGCGCUUCUGGUGGCCCUUGGAGUGUGACAGCAACAGAGGAUUGAGCAUCA
B6: chr14:78183846:78183847:+_ENSG00000119705_ENST00000557342|hu_hu|hu_hu_hu_mus_False|18_88 (ssRNA)
RNA: GGGAGUUCUACAGUCCGACGAUCUCUCAGAAAUCUUUCUUCAUCAGCAUCAUCAGAUCCGUGCAAAGCCUUUGCUCUUUGAGCUUGAACGUGGAUCUAUGGGAGGGAAAGCACUGUAUUUUCCUGUAAUUUUUUUUUUAAAGACAACAGAGGAUUGAGCAUCA
B7: chr7:135834168:135834169:+_ENSMUSG00000042105_ENSMUST00000151237|mus_hu|FALSE|FALSE (ssRNA)
RNA: GGGAGUUCUACAGUCCGACGAUCUUCAUCAUCAUAAUAGGCCACGUAGUAGGCAGAGUUAGAAAGCAGUAACAGCACAUCCACGUCUCUGUGAGUAGCAUCAAUGAGGGUGCACUCUGAAAAUUGUUGCUUGAGCCAAGCCAUCAACAGAGGAUUGAGCAUCA
B8: chr2:179515052:179515053:+_ENSMUSG00000000305_ENSMUST00000000314|mus_mus|motif|central (ssRNA)
RNA: GGGAGUUCUACAGUCCGACGAUCGCGUUCCCGCGCAGUGACGGUAAAGGCCACCUGCUCUGAGGGGAUCUUCAACUCCCGGGUGGCGAAGACUGUCCCAUCCGCCCCGACUUUGAAGUCCAAGCUGUUGGUCUCAUACUGCAUCAACAGAGGAUUGAGCAUCA
B9: 169336970_169337090_175_5pUTR_ENSG00000143156_ENST00000367811|human|control|control (ssRNA)
RNA: GGGAGUUCUACAGUCCGACGAUCAAAAUAGGUAUCGUUGAGACAGGAAGACACCACCACCACCACCAUCAUACGGUUACUCAGGCAACAAAGCCCCGCCCACUGUCGCACGAGGCGUGGGACGCCACCGCCCCACCUCUUCGUCAACAGAGGAUUGAGCAUCA
B10: chr1:231488893:231488894:+_ENSG00000010072_ENST00000295050|hu_mus|FALSE|FALSE (ssRNA)
RNA: GGGAGUUCUACAGUCCGACGAUCGACCAGCCGCCGUUGACUGCUCAAGCUCUGAGGAGCGCUGGCGGCUGUGGGCUGUGAGCUACUCCGAAGGUCACCACCACUUUGUGUUUGUUCCUUGAUAGUAUCCAAAGCAGUCCUGUCCAACAGAGGAUUGAGCAUCA
B11: chrX:101971874:101971875:+_ENSG00000158301_ENST00000332262|hu_hu|FALSE|FALSE (ssRNA)
RNA: GGGAGUUCUACAGUCCGACGAUCCAUAGUGAGGUGUCUAAGCAUCCUUAUUCCAGUCAGCUGCUCAAGGGAAUCCACACUAUGUGCAAGGGUUUCCUCACACACUUGACAUAUGAAUGUCUCAAUCAUGUUUAGAUUUGGAUACAACAGAGGAUUGAGCAUCA
B12: 148340382_148341706_542_3pUTR_ENSMUSG00000028975_ENSMUST00000103217|mouse|control|control (ssRNA)
RNA: GGGAGUUCUACAGUCCGACGAUCCUCAGUAGCUCUUGGACAGAGGCCAGUGUUGUCUGCACCUGAGUCACUGUCUGGGCCACGGUGCCACUCAGUUCCGAGAGACUCGCUGCCAUCCUCUCCAGCUGCUUUCUGUCCUCUCGGCAACAGAGGAUUGAGCAUCA
B13: 234357861_234357981_1799_3pUTR_ENSG00000077044_ENST00000264057|human|control|control (ssRNA)
RNA: GGGAGUUCUACAGUCCGACGAUCAGGCUGUUGGCUCUCAGCAUGAGCUGUUCUCGAGGCCGGAAUAUCUGCGGCCGGGCCGGGCAAGCUGAUGCCACCAAGCGGUCUCCGGUGGAACCGCAGAUGCUGCCCGACCCAUCUCCACAACAGAGGAUUGAGCAUCA
B14: 122260803_122260923_138_5pUTR_ENSMUSG00000032540_ENSMUST00000156520|mouse|control|control (ssRNA)
RNA: GGGAGUUCUACAGUCCGACGAUCCCGCCGCCAUCGCUUUCAUCACCGCCGCCGCGCAAGCGCAGGGACACACCUCGAAGCCGGCUGACAGGCCGACUGGGCGGCCCCGGGCCGCGGCCGCCCUUAAGACCGCACCGCCCGCGCCAACAGAGGAUUGAGCAUCA

molecular target: T1, UNK ZnF1-3 (human, UniProt Q9C0B0 31-174); test: nsRBNS (natural sequence RNA bind-n-seq); RBNS binding buffer (assumed for nsRBNS): 25 mM Tris pH 7.5, 150 mM KCl, 3 mM MgCl2, 0.01% Triton X-100, 500 ug/ml BSA, 20 U/ml SUPERase-In, 4 C; UNK is unkempt and MSI1 is Musashi-1; names of the RNAs are library labels; protein concentration not given here; high values mean tight binding
T1 sequence: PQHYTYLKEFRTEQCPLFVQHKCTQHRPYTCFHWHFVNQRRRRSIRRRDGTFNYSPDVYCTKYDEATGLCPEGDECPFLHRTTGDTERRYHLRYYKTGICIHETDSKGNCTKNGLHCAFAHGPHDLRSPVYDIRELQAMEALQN

| Binder | binding signal [enrichment R] |
| --- | --- |
| B1 | 0.995 |
| B2 | 1.12 |
| B3 | 1.05 |
| B4 | 0.745 |
| B5 | 1.26 |
| B6 | 1.38 |
| B7 | 1.09 |
| B8 | 0.702 |
| B9 | 0.937 |
| B10 | 1.31 |
| B11 | 0.605 |
| B12 | 0.496 |
| B13 | 0.41 |
| B14 | 1.15 |
